Source: PubChem BioAssay AID1159614 (National Center for Advancing Translational Sciences (NCATS), 2016)
Hit rate of the full screen: of about 45,000 compounds, about 65 (0.1%) were called active. The call rests on the fitted dose curve; in most records, active means well fitted activation curve with a large enough effect; inconclusive means small, poorly fitted or top-dose-only effect; inactive means no such curve, though single readings can be large or run the other way. Some of the results follow.

Target: Galactocerebrosidase (Homo sapiens) (UniProt P54803)
Assay: A Novel Cell-Based Assay to Identify Small Molecules for B -Galactocerebrosidase; further: 0% is about no effect; nearly all actives have a fitted effect of over 65% in size
Conditions: 145M-Twi-hGALC-G270D cells (Twitcher mouse brain line with human GALC G270D), HMU-beta-Gal fluorescence, 48 h; series mostly up to 57.5 µM; activation: at the top concentration
How it was run: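 Fluorogenic HMU-b-Gal hydrolysis (0.1 mM final, pH 5.2 citrate-phosphate with 1 mg/mL sodium taurocholate; carbonate stop buffer) measures mutant GALC activity after compound treatment of live 145M-Twi Twitcher brain cells stably carrying human GALC-G270D, with wild-type GALC line alongside; activation sought.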

Sequence of UniProt P54803 (P54803 whole entry, looked up): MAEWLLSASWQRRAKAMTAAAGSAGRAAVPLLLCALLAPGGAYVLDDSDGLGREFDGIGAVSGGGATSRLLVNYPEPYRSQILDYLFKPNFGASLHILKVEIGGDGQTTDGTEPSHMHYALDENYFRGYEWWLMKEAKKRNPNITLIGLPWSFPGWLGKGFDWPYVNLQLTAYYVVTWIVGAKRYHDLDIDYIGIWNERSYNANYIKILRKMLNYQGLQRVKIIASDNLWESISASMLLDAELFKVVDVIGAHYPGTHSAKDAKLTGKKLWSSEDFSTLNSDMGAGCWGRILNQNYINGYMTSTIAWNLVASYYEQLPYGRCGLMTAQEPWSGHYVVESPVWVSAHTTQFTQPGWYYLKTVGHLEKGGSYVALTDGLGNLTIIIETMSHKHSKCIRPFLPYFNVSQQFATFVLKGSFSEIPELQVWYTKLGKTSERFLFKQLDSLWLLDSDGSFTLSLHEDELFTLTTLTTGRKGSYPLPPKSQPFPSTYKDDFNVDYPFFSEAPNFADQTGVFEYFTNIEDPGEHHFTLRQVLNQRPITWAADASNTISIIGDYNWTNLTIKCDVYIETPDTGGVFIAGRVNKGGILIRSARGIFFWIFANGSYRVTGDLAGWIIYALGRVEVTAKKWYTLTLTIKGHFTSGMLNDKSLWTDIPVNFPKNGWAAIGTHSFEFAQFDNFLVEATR

activation, inactive:
CC(=O)c1cccc(NC(=O)Nc2cc3c(cc2N2CCCC2)n(C)c(=O)n3C)c1 -5.97%, CCc1ccc(C(=O)Nc2cccc(-c3nc4cc(C(C)C)ccc4o3)c2)cc1 -8.41%, Cc1ccc(NC(=O)Cn2c(=O)cc(-c3ccccc3)c3c(C)nn(C)c32)c(Cl)c1 -13.9%, O=C(CSc1nnc(-c2ccc(Cl)cc2)c(-c2ccc(Cl)cc2)n1)NC1CCCC1 -5.22%, O=C(CCCn1c(=O)[nH]c2ccsc2c1=O)N1CCN(c2ccc(Cl)cc2)CC1 -2.25%, Cc1ccc(C)c(NC(=O)Cn2c(=O)n(CC(=O)NCCc3ccccc3)c(=O)c3ccccc32)c1 -7.25%, CCOC(=O)c1sc2cccc(F)c2c1S(=O)(=O)Nc1ccccc1F -22.2%, COc1ccc(Cn2c(SCc3ccc(C(=O)NCc4cccs4)cc3)nc3ccncc32)cc1 -5.5%, CCN(C(=O)c1cc(S(=O)(=O)N2CCCC2)cn1C)c1ccc(OC)cc1 3.27%, COc1ccc(NC(=O)c2nnn(CC(=O)Nc3cc(C)cc(C)c3)c2N)c(OC)c1 -0.0181%, CCCCC(=O)Nc1ccc(C(=O)OCc2cc(=O)n3ccsc3n2)cc1 -9.27%, O=S(=O)(c1ccccc1)c1nc(-c2ccco2)oc1SCc1ccc(F)cc1 -19.9%, CC(C)NNC(=O)c1ccncc1 -12.6%, CCOC(=O)CC(NC(=O)CCc1c(C)nc2cc(-c3ccccc3)nn2c1C)c1ccc(C)cc1 (stereo not given) -14.3%, O=C(Nc1cc(F)ccc1F)c1cnn2c(C(F)F)cc(-c3ccccc3)nc12 -5.56%, COc1cc(OC)c(NC(=O)C(C)n2nc(-c3ccc(C)cc3)c3c(c2=O)CCCC3)cc1Cl (stereo not given) -17%, N#Cc1ccccc1NC(=O)C(=O)NCC(c1cccnc1)N1CCc2ccccc21 (stereo not given) -29.7%, COC(=O)c1ccc(NC(=O)CSc2nc3cc4ccccc4cc3[nH]2)cc1 -18.1%, Cc1ccc(S(=O)(=O)c2nnn3c2nc(N2CCN(c4cccc(C)c4C)CC2)c2ccccc23)cc1C -8.48%, COc1ccccc1-c1cc2nc(C)c(CCC(=O)NC3CCCCC3)c(C)n2n1 -15.7%, O=C(c1ccccc1)c1ccc2nc(N3CCN(c4ccc(F)cc4)CC3)c3nncn3c2c1 -6.65%, Cc1ccc(NC(=O)C2CCCN(c3ncnc4onc(C)c34)C2)cc1Cl (stereo not given) -26.5%, Clc1cccc(-n2ncc3c(N4CCCCCC4)ncnc32)c1 -12.1%, Cn1c(=O)n(C)c2cc(N3CCCC3)c(NC(=O)Nc3ccccc3)cc21 -10.1%, Cc1cc(C(=O)N2CCN(c3cc(Cl)ccc3C)CC2)c2c(C)nn(-c3ccccc3)c2n1 -12.4%, CCNc1sc(S(C)(=O)=O)nc1S(=O)(=O)c1ccc(C)cc1 -18.1%, Cc1ccc(Cn2c(=O)n(Cc3ccccc3Cl)c(=O)c3cccnc32)cc1 -1.39%, CCCCc1nn2c(=O)cc(COC(=O)c3cccs3)nc2s1 -14.5%, COc1cc(OC)c(NC(=O)c2c(C)oc3ncnc(N4CCCCC4)c23)cc1Cl -13%, COC(=O)c1ccccc1NC(=O)Cn1c(=O)n(CCCCC(=O)NCc2ccc3c(c2)OCO3)c(=O)c2ccccc21 -4.46%, Cc1ccc(N2CCN(c3nc4ccccc4c4nnc(C)n34)CC2)c(C)c1 0.357%, CCc1ccc(NC(=O)CCNC(=O)Cn2cnc3ccccc3c2=O)cc1 -21.5%, Cc1ccc(CNC(=O)c2cccc(Nc3nc4ccccc4n4nnnc34)c2)cc1 -11%, Cc1ccc(NC(=O)Cn2ncn3c(cc4ccccc43)c2=O)cc1C -1.34%, Cc1cccc(C)c1NC(=O)Cn1cc(S(=O)(=O)Cc2ccc(F)cc2)c2ccccc21 -4.59%, Cn1c(=O)c2c(nc(N3CCOCC3)n2Cc2ccccc2)n(C)c1=O -12.9%, CCOC(=O)c1c(C)[nH]c(C)c1S(=O)(=O)N(C)CC(=O)N1CCN(c2cccc(Cl)c2)CC1 -5.71%, Cc1ccc(CNC(=O)CN2C(=O)COc3ccccc32)cc1 -12.7%, Cc1ccc(C(=O)c2cn(Cc3c(F)cccc3Cl)c3nc(C)ccc3c2=O)cc1 -8.19%, COc1ccc(C(=O)Nc2nnc(SCc3cc(=O)n4cc(Cl)ccc4n3)s2)cc1 -6.1%, Cc1cc(C)cc(NC(=O)Cn2c(=O)n(CC(=O)NCCc3ccccc3)c(=O)c3ccccc32)c1 -21.2%, CCc1nc2ccc(C(=O)NCCc3ccc(OC)cc3OC)cc2nc1CC -17.8%, O=C(NCCc1ccc(Cl)cc1)c1ccc(CS(=O)(=O)Cc2ccc(Cl)cc2)o1 -7.21%, Cc1noc(-c2ccc(-c3noc(-c4ccccc4)n3)cc2)n1 -12.9%, CCc1ccc(C2CC(=O)c3c([nH]c(C(=O)OCc4ccc(C)cc4)c3C)C2)cc1 (stereo not given) -17.3%, CCC(C(=O)NCc1ccc2c(c1)CCN2C(=O)c1ccc(F)cc1)c1ccccc1 (stereo not given) -20.6%, CCOc1ccc(CCNC(=O)c2cc(Nc3ccc(C)cc3C)nc3ccccc23)cc1OCC -9.7%, CC(=O)c1cc(-c2ccccc2)n(CCC(=O)Nc2nc3c(C)cccc3s2)c1C -1.73%, CC1CCN(S(=O)(=O)c2ccc3[nH]cc(C(=O)NCc4ccc(F)cc4)c(=O)c3c2)CC1 -12.7%, CCOC(=O)c1cc(-c2ccc(C)cc2)n(CCC(=O)Nc2cc(Cl)ccc2C)c1C 8.42%, Cc1ccc2c(c1)sc1nc(-c3cc4cc(Cl)ccc4oc3=O)cn12 -18.7%, Cc1cccc(CSc2nc(=O)c3c(n2C)NC(=O)CC3c2cccc(O)c2)c1 (stereo not given) -10.4%, COc1cc2[nH]c(=O)n(Cc3ccc(C(=O)NCc4ccc(C)cc4)cc3)c(=O)c2cc1OC -18.9%, COc1ccccc1NC(=O)Cn1c(=O)n(-c2cccc(Cl)c2)c(=O)c2sc3ccccc3c21 -8.01%, O=C1Cc2cc(S(=O)(=O)N3CCCCC3)cc3c2N1CCC3 -5.44%, Cc1ccc(N2CC(NC(=O)Cc3ccc(F)cc3)CC2=O)cc1 (stereo not given) -5.07%, CC1=C(C(=O)Nc2cccc(C(F)(F)F)c2)C2(CCCCCC2)OC1=O -1.52%, O=C(Cn1c(=O)n(Cc2ccc(C(=O)NCc3ccc4c(c3)OCO4)cc2)c(=O)c2ccccc21)Nc1cccc(Cl)c1 -2.61%, Cc1ccc(C)c(Cn2cnc3ccccc3c2=O)c1 -10.6%, COc1cccc(CNC(=O)CSc2n[nH]c(-c3ccccc3Cl)n2)c1 -10.6%, CCc1ccc(CNC(=O)c2ccc3c(c2)nc2n3CCCCC2)cc1 -11.4%, COc1ccc(OC)c(CCNC(=O)CN2C(=O)COc3ccc(S(=O)(=O)N4CCCCCC4)cc32)c1 -13.4%, COc1cccc(CNC(=O)CCNS(=O)(=O)c2ccc3c(c2)CCCC(=O)N3)c1 -22.8%, Fc1ccccc1C1=NC(c2ccc(C(F)(F)F)cc2)=Nc2ccccc2N1 -18.5%, CCOc1ccccc1CN1CCc2nc(Nc3ccccc3)ncc2C1 5.85%, COc1cc(CN2CCN(S(=O)(=O)c3ccc(F)cc3)CC2)cc(OC)c1OC -0.835%, O=C(NCc1ccccn1)c1nn(-c2ccccc2F)nc1CO -18%, Fc1ccc(-n2ncc3c(N4CCN(Cc5ccccc5)CC4)ncnc32)cc1 -9.92%, COC(=O)c1cc(OC)c(OC)cc1NC(=O)c1ccc2c(c1)CCN2S(=O)(=O)c1ccccc1 -2.28%, O=C(c1ccc(F)cc1)n1nc(-c2ccc(Cl)cc2)nc1NCc1ccco1 -21.1%, COc1ccccc1NC(=O)Cn1nc(C)n2cccc2c1=O -10.9%, Cc1ccc(CNC(=O)Cn2ccn(-c3cc(C)cc(C)c3)c(=O)c2=O)cc1 -7.53%, O=C(Nc1c2c(nn1-c1ccc(Cl)cc1)CS(=O)(=O)C2)c1cccc(Cl)c1 -20.6%, CC1=C(C(=O)Nc2ccccc2)C(c2cccs2)n2nc(SCc3ccccc3)nc2N1 (stereo not given) -12.5%, CC(=O)N1c2ccc(S(=O)(=O)NCCC(=O)Nc3ccc(C)cc3Br)cc2CC1C (stereo not given) -24.8%, CCc1cccc(NC(=O)CN2c3ccccc3S(=O)(=O)c3ccccc32)c1 -27.5%, O=C(CSc1ccc2nnc(CCNS(=O)(=O)c3ccccc3)n2n1)Nc1ccccc1C(F)(F)F -0.0524%, COC(=O)c1ccc(Cn2c(SCC(=O)Nc3ccc(F)cc3)nc3ccccc32)cc1 1%, Cc1ccc(N2CC(C(=O)NCc3nnnn3-c3ccc(C)c(C)c3)CC2=O)cc1 (stereo not given) 1.09%, CCOc1ccc(-c2cc(NC(=O)Nc3ccccc3C(F)(F)F)c(C(=O)OC)s2)cc1 -16.1%, CCCCOc1ccc(C(=O)Nc2ccc3c(c2)CCCN3S(=O)(=O)c2ccc(C)cc2)cc1 -17.4%, CCCCN(CC)Cc1ccc(CNS(=O)(=O)c2cc3c(cc2Cl)NC(=O)CO3)o1 -6.84%, CCOc1ccc(NC(=O)Cn2c(=O)n(Cc3ccc(C(=O)NCc4ccc5c(c4)OCO5)cc3)c(=O)c3ccccc32)cc1 -13.2%, CCOC(=O)N1CCc2c(sc3c2c(=O)n(-c2ccc(CC)cc2)c(=O)n3Cc2cc(C)ccc2C)C1 -5.03%, CCOc1ccccc1NC(=O)C1CCCN(S(=O)(=O)c2cn(C)cn2)C1 (stereo not given) -7.58%, CCOC(=O)c1c(C)oc2nc(C)nc(Nc3cc(C)ccc3OC)c12 -15.3%, CCOc1ccc(NC(=O)Cn2c(=O)cc(C)c3c(C)nn(-c4ccc(CC)cc4)c32)cc1 -8.33%, COc1ccc(C(=O)Nc2ccccc2C(=O)OCc2cc(=O)n3nc(C4CC4)sc3n2)cc1 -20.3%, O=C(C1CCCCC1)N(Cc1cccnc1)c1nc2ccc(F)cc2s1 -19.3%, CCc1nnc(NC(=O)CSc2nc3c([nH]c4ccccc43)c(=O)n2-c2ccc(OC)cc2)s1 -10.1%, CC(C)c1ccc(/C=C(\C#N)c2nc(-c3ccc(O)cc3)cs2)cc1 -43.7%, Nc1nc(N)c(S(=O)(=O)c2ccccc2)c(Nc2ccc(F)cc2)n1 3.61%, CCOC(=O)c1c(Nc2cccc(C)c2)nnc(-c2ccccc2)c1-c1ccccc1 -31.1%, Cn1ccc2cc(S(=O)(=O)N3CCN(C(=O)Nc4ccccc4F)CC3)ccc21 7.72%, CCc1cccc(NC(=O)COc2cc(=O)n(CC)c3ccccc23)c1 -7%
